# “And” between values parts separate entries of the source, which are not always exact repeats. Equal entries are not always repeated. ± gives the standard deviation of the averaged measurements. Whole data set: some 2,900 compounds, median “IRF Lucia reporter activity, fold change vs agonist alone” near 0.9, cut for the highest 2% near 2.8. The list shows a part of the results.
# Columns and labels:
# RAW-Dual [1] = assay: IRF Lucia reporter activity, fold change vs agonist alone; cytotoxicity flag (confluency mask): not cytotoxic; higher = enhanced IRF activity
# In short: (§1)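 Supernatant from RAW-Dual macrophages was read after 20 hours for IRF by QuantiLuc luminescence and for NF-κB by QuantiBlue absorbance at 620 nm. The cells (50,000 cells/well in DMEM, 384-well plates, 37 °C, 5% CO2) had received 50 nL of library stock by pin tool and, 1 h later, a PRR agonist. Reporter activity is expressed relative to agonist-alone wells as fold change, and wells were flagged cytotoxic if IncuCyte confluency was under 70% of agonist controls in both mask sets.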
# RAW-Dual [2] = assay: IRF Lucia reporter activity, fold change vs agonist alone; higher = enhanced IRF activity; details: agonist: MPLA (TLR4) […]
# In short: as §1
# RAW-Dual [3] = assay: IRF Lucia reporter activity, fold change vs agonist alone; cytotoxicity flag (confluency mask): cytotoxic (confluency <70% of control); higher = enhanced IRF activity
# In short: as §1
# [4] = agonist: 3'3'-cGAMP (STING) 10 ug/mL
# [5] = library stock concentration (final ~1000-fold dilution): 10 mM, cytotoxicity flag (confluency mask): not cytotoxic
# [6] = library stock concentration (final ~1000-fold dilution): 10 mM, cytotoxicity flag (confluency mask): cytotoxic (confluency <70% of control)
compound,measurement,setting,value
C#CCNC1CCc2ccccc21.CS(=O)(=O)O (stereo not given) (library stock concentration (final ~1000-fold dilution): 10 mM),IRF Lucia reporter activity,RAW-Dual [1]; [4],1.01
same,IRF Lucia reporter activity,RAW-Dual [1]; agonist: LPS (TLR4) 0.1 ug/mL,1.04
CCn1cc(C(=O)O)c(=O)c2cc(F)c(N3CCN(C)CC3)cc21.CS(=O)(=O)O (library stock concentration (final ~1000-fold dilution): 10 mM),IRF Lucia reporter activity,RAW-Dual [1]; [4],0.953
same,IRF Lucia reporter activity,RAW-Dual [1]; agonist: LPS (TLR4) 0.1 ug/mL,0.907
CCn1cc(C(=O)O)c(=O)c2cc(F)c(N3CCN(C)CC3)cc21.CS(=O)(=O)O,IRF Lucia reporter activity,RAW-Dual [2]; [5],0.723
C[C@@H]1O[C@@H](OC[C@H]2O[C@@H](Oc3c(-c4ccc(O)c(O)c4)oc4cc(O)cc(O)c4c3=O)[C@H](O)[C@@H](O)[C@@H]2O)[C@H](O)[C@H](O)[C@H]1O (library stock concentration (final ~1000-fold dilution): 10 mM),IRF Lucia reporter activity,RAW-Dual [1]; [4],0.0394
same,IRF Lucia reporter activity,RAW-Dual [1]; agonist: LPS (TLR4) 0.1 ug/mL,0.168
Cc1nn(C)c(COc2ccc(N3CCN(S(=O)(=O)N(C)C)CC3)cc2)c1-c1cccc2c(CCCOc3cccc4ccccc34)c(C(=O)O)n(CCN3CCOCC3)c12 (library stock concentration (final ~1000-fold dilution): 2 mM),IRF Lucia reporter activity,RAW-Dual [1]; [4],1.15
same,IRF Lucia reporter activity,RAW-Dual [1]; agonist: LPS (TLR4) 0.1 ug/mL,0.908
C=Cc1c(C)c2cc3nc(cc4[nH]c(cc5nc(cc1[nH]2)C(C)=C5CCC(=O)O)c(CCC(=O)OC)c4C)C1(C)C3=CC=C(C(=O)OC)C1C(=O)OC (stereo not given),IRF Lucia reporter activity,RAW-Dual [2]; [6],0.0336
C=Cc1c(C)c2cc3nc(cc4[nH]c(cc5nc(cc1[nH]2)C(C)=C5CCC(=O)O)c(CCC(=O)OC)c4C)C1(C)C3=CC=C(C(=O)OC)C1C(=O)OC (stereo not given) (library stock concentration (final ~1000-fold dilution): 10 mM),IRF Lucia reporter activity,RAW-Dual [3]; [4],0.0182
same,IRF Lucia reporter activity,RAW-Dual [3]; agonist: LPS (TLR4) 0.1 ug/mL,0.0407
NC(=O)Nc1sc(-c2ccc(F)cc2)cc1C(N)=O,IRF Lucia reporter activity,RAW-Dual [2]; [6],0.396 ± 0.49
NC(=O)Nc1sc(-c2ccc(F)cc2)cc1C(N)=O (library stock concentration (final ~1000-fold dilution): 10 mM),IRF Lucia reporter activity,RAW-Dual [3]; [4],0.0273 and 0.0281
same,IRF Lucia reporter activity,RAW-Dual [3]; agonist: LPS (TLR4) 0.1 ug/mL,0.0315 and 0.0364
C/C=C1/C2C=C(C)CC1(N)c1ccc(=O)[nH]c1C2 (stereo not given) (library stock concentration (final ~1000-fold dilution): 2 mM),IRF Lucia reporter activity,RAW-Dual [1]; [4],1.07
same,IRF Lucia reporter activity,RAW-Dual [1]; agonist: LPS (TLR4) 0.1 ug/mL,0.902
C/C=C1/C2C=C(C)CC1(N)c1ccc(=O)[nH]c1C2 (stereo not given),IRF Lucia reporter activity,"RAW-Dual [2]; library stock concentration (final ~1000-fold dilution): 2 mM, cytotoxicity flag (confluency mask): not cytotoxic",1.39
CCCCCCCC(=O)NC(CN1CCCC1)C(O)c1ccc2c(c1)OCCO2 (stereo not given) (library stock concentration (final ~1000-fold dilution): 10 mM),IRF Lucia reporter activity,RAW-Dual [1]; [4],0.521
same,IRF Lucia reporter activity,RAW-Dual [1]; agonist: LPS (TLR4) 0.1 ug/mL,1.22
C[N+]1(C)C2CCC1CC(OC(=O)C(O)c1ccccc1)C2 (stereo not given),IRF Lucia reporter activity,RAW-Dual [2]; [5],0.953
C[N+]1(C)C2CCC1CC(OC(=O)C(O)c1ccccc1)C2 (stereo not given) (library stock concentration (final ~1000-fold dilution): 10 mM),IRF Lucia reporter activity,RAW-Dual [1]; [4],1.01
same,IRF Lucia reporter activity,RAW-Dual [1]; agonist: LPS (TLR4) 0.1 ug/mL,1.29
CN(C)c1ncnc2nc[nH]c12,IRF Lucia reporter activity,RAW-Dual [2]; [5],0.883
CN(C)c1ncnc2nc[nH]c12 (library stock concentration (final ~1000-fold dilution): 10 mM),IRF Lucia reporter activity,RAW-Dual [1]; [4],0.82
same,IRF Lucia reporter activity,RAW-Dual [1]; agonist: LPS (TLR4) 0.1 ug/mL,0.533
Fc1ccc2c(/C=C/c3nnn[nH]3)c[nH]c2c1 (library stock concentration (final ~1000-fold dilution): 10 mM),IRF Lucia reporter activity,RAW-Dual [1]; [4],1.02
same,IRF Lucia reporter activity,RAW-Dual [1]; agonist: LPS (TLR4) 0.1 ug/mL,1.25
CCCc1nc(C)c2c(=O)[nH]c(-c3cc(S(=O)(=O)N4CCN(CC)CC4)ccc3OCC)nn12.Cl.O.O.O,IRF Lucia reporter activity,RAW-Dual [2]; [5],0.917
CCCc1nc(C)c2c(=O)[nH]c(-c3cc(S(=O)(=O)N4CCN(CC)CC4)ccc3OCC)nn12.Cl.O.O.O (library stock concentration (final ~1000-fold dilution): 10 mM),IRF Lucia reporter activity,RAW-Dual [1]; [4],0.839
same,IRF Lucia reporter activity,RAW-Dual [1]; agonist: LPS (TLR4) 0.1 ug/mL,0.967
Cn1cc(/C=C/C(=O)c2cccc(F)c2)cc1/C=C/C(=O)NO (library stock concentration (final ~1000-fold dilution): 10 mM),IRF Lucia reporter activity,RAW-Dual [1]; [4],0.0742
same,IRF Lucia reporter activity,RAW-Dual [1]; agonist: LPS (TLR4) 0.1 ug/mL,0.992
Cn1cc(/C=C/C(=O)c2cccc(F)c2)cc1/C=C/C(=O)NO,IRF Lucia reporter activity,RAW-Dual [2]; [5],0.49
Cc1nc(N(C)C(=O)Cc2ccc(-c3ccccn3)cc2)sc1S(N)(=O)=O,IRF Lucia reporter activity,RAW-Dual [2]; [5],0.705
Cc1nc(N(C)C(=O)Cc2ccc(-c3ccccn3)cc2)sc1S(N)(=O)=O (library stock concentration (final ~1000-fold dilution): 10 mM),IRF Lucia reporter activity,RAW-Dual [1]; [4],0.513
same,IRF Lucia reporter activity,RAW-Dual [1]; agonist: LPS (TLR4) 0.1 ug/mL,0.902
CC(COc1ccccc1)N(CCCl)Cc1ccccc1.Cl (stereo not given),IRF Lucia reporter activity,RAW-Dual [2]; [5],1.07
CC(COc1ccccc1)N(CCCl)Cc1ccccc1.Cl (stereo not given) (library stock concentration (final ~1000-fold dilution): 10 mM),IRF Lucia reporter activity,RAW-Dual [1]; [4],1.02
same,IRF Lucia reporter activity,RAW-Dual [1]; agonist: LPS (TLR4) 0.1 ug/mL,0.0348
COc1nc(C)cnc1NS(=O)(=O)c1cccnc1-c1ccc(-c2nnco2)cc1,IRF Lucia reporter activity,RAW-Dual [2]; [5],0.842
COc1nc(C)cnc1NS(=O)(=O)c1cccnc1-c1ccc(-c2nnco2)cc1 (library stock concentration (final ~1000-fold dilution): 10 mM),IRF Lucia reporter activity,RAW-Dual [1]; [4],1.07
same,IRF Lucia reporter activity,RAW-Dual [1]; agonist: LPS (TLR4) 0.1 ug/mL,0.998
O=C(Nc1ccc(OC(F)(F)Cl)cc1)c1cnc(N2CCC(O)C2)c(-c2ccn[nH]2)c1 (stereo not given) (library stock concentration (final ~1000-fold dilution): 10 mM),IRF Lucia reporter activity,RAW-Dual [1]; [4],0.296
same,IRF Lucia reporter activity,RAW-Dual [1]; agonist: LPS (TLR4) 0.1 ug/mL,1.27
